Results as given in the supplement of paper PMC10126150.
Sequences with one replicate were seen in a single cluster, so their values are uncertain.

test system: ATP; assay: switch fluorescence ratio, 500 uM ATP over buffer (Cy3 cluster intensity, sum of 5 cycles each) (fold (ratio)); higher = stronger signal-on switching upon ATP binding; sequences stand for … in TCGTCGGCAGCGTCAGATGTGTATAAGAGACAGTTTTTTTTTTTTTTTTTTTTTTTTT…TC; settings: aptamer strand: ATP DNA aptamer (quencher-CACCTGGGGGAGTATTGCGGAGGAAGG + anchor), 100 nM annealed; ATP concentration: 500 uM; one replicate
Outline: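 Imaging in selection buffer was followed by imaging after 15 min with 500 uM ATP at 22 °C, for Cy3-labelled switching-strand clusters annealed to 100 nM quencher-labelled ATP aptamer on a modified Illumina MiSeq flow-cell. Five of these buffer/ATP cycles ran, separated by NaOH stripping and re-annealing. The fluorescence ratio per cluster is summed target-cycle over summed buffer-cycle Cy3 intensity, averaged per switch-domain sequence; clusters outside 100-1000 RFU were removed.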
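Note: ATP exposure 15 min at 22 °C before imaging.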

Row | Sequence | switch fluorescence ratio
1 | AGTAAAGGTT | 0.964
2 | AGTAACCCGT | 0.952
3 | AGTAACTAGG | 1.03
4 | AGTAAGCGCA | 0.998
5 | AGTAAGGTGA | 1.17
6 | AGTAAGTGGT | 0.997
7 | AGTAATATCC | 1.07
8 | AGTAATATT | 0.996
9 | AGTAATCATA | 0.991
10 | AGTAATCGGG | 1.02
11 | AGTAATGCCA | 0.945
12 | AGTAATGTAC | 1.1
13 | AGTAATTCTC | 1.12
14 | AGTACAATCT | 1.05
15 | AGTACAGTGT | 1
16 | AGTACCCCGT | 0.981
17 | AGTACCGTA | 1.08
18 | AGTACGAACT | 1.37
19 | AGTACGACGG | 1.01
20 | AGTACGGCCT | 1.03
21 | AGTACTTTAT | 1.03
22 | AGTAGAATGC | 1.07
23 | AGTAGAGATT | 1.02
24 | AGTAGATGTG | 1.01
25 | AGTAGCAGGT | 0.991

Row | Sequence | switch fluorescence ratio
26 | AGTAGTGATG | 0.975
27 | AGTAGTGGTT | 0.935
28 | AGTATATAAG | 0.995
29 | AGTATATGTC | 0.924
30 | AGTATATTGC | 1.22
31 | AGTATCTTAG | 1.01
32 | AGTATCTTCT | 0.967
33 | AGTATGACTC | 1.03
34 | AGTATGAGGA | 1.03
35 | AGTATGATTG | 0.959
36 | AGTATGTGTA | 0.997
37 | AGTATGTGTG | 0.964
38 | AGTATGTTAA | 1.03
39 | AGTATTATCG | 1.01
40 | AGTATTCTTT | 1.18
41 | AGTCAAACTC | 1.11
42 | AGTCAAAGC | 0.97
43 | AGTCAAGCTT | 0.994
44 | AGTCAATCA | 0.995
45 | AGTCAGACT | 0.994
46 | AGTCAGCATA | 1.3
47 | AGTCAGCCTT | 1.07
48 | AGTCATATTT | 1.03
49 | AGTCATCCTT | 1.07
50 | AGTCATGGGG | 0.992

Row | Sequence | switch fluorescence ratio
51 | AGTCCATTTC | 0.988
52 | AGTCCCAAAT | 0.992
53 | AGTCCCAGTT | 1.05
54 | AGTCCCCCTG | 4.37
55 | AGTCCCGAGT | 0.979
56 | AGTCCCTCTA | 0.988
57 | AGTCCGTGCG | 1.03
58 | AGTCCTTGTT | 1.01
59 | AGTCCTTTGG | 0.988
60 | AGTCGCAACA | 1.06
61 | AGTCGTATGG | 0.933
62 | AGTCGTGCGA | 1.01
63 | AGTCTAGGGA | 1
64 | AGTCTGAATG | 0.956
65 | AGTCTGTATG | 1
66 | AGTCTGTGGC | 0.924
67 | AGTCTGTTAG | 1.01
68 | AGTCTTTTAA | 1.03
69 | AGTGACGAGC | 1.02
70 | AGTGACGGGA | 1.05
71 | AGTGACTCGT | 0.963
72 | AGTGAGACCC | 0.98
73 | AGTGAGTCCT | 0.995
74 | AGTGATGCTC | 1.27
75 | AGTGATTTCC | 1.03

Row | Sequence | switch fluorescence ratio
76 | AGTGCCTTCG | 1.15
77 | AGTGCGTCCA | 0.969
78 | AGTGCGTCTG | 0.972
79 | AGTGCTACTT | 1.03
80 | AGTGCTAGTA | 0.95
81 | AGTGCTCCGA | 1.07
82 | AGTGCTGCC | 1.01
83 | AGTGCTGCTT | 0.97
84 | AGTGGAAAAT | 1.01
85 | AGTGGAGCCA | 0.979
86 | AGTGGAGGTA | 0.964
87 | AGTGGCATCT | 1.03
88 | AGTGGCGTAT | 1.02
89 | AGTGGGACAC | 0.954
90 | AGTGGGACC | 1.01
91 | AGTGGGGAA | 1
92 | AGTGGGTATC | 1.02
93 | AGTGGGTTTG | 0.991
94 | AGTGGTCTTG | 0.972
95 | AGTGTAGCTC | 1.05
96 | AGTGTATAAG | 0.985
97 | AGTGTATTAG | 1.05
98 | AGTGTGGCTG | 1.01
99 | AGTGTGTCGA | 0.981
100 | AGTGTGTCGT | 1.03

Row | Sequence | switch fluorescence ratio
101 | AGTGTTTCAT | 1.01
102 | AGTGTTTTGA | 0.969
103 | AGTTAATTA | 1.02
104 | AGTTAATTAC | 1.1
105 | AGTTACCGCT | 1.03
106 | AGTTAGGATG | 0.978
107 | AGTTATGACA | 0.976
108 | AGTTATTCGT | 1.03
109 | AGTTCCTGCG | 1.52
110 | AGTTCGCTCT | 0.968
111 | AGTTCGGTGA | 1.04
112 | AGTTCGTCGG | 1.01
113 | AGTTCTGTTG | 1.04
114 | AGTTGAAGAT | 0.971
115 | AGTTGGAAGT | 1
116 | AGTTGGAATC | 1
117 | AGTTGGATTC | 1
118 | AGTTGGCTT | 1.02
119 | AGTTGTCGTA | 0.99
120 | AGTTGTGGTC | 0.999
121 | AGTTGTGGTG | 0.959
122 | AGTTGTTATG | 1.02
123 | AGTTTAGTTA | 1.01
124 | AGTTTGAATG | 1.04
125 | AGTTTGCGGA | 1.01

Row | Sequence | switch fluorescence ratio
126 | AGTTTTCGAA | 0.958
127 | AGTTTTCGGT | 0.966
128 | AGTTTTCTAA | 0.992
129 | AGTTTTGTGA | 1.01
130 | AGTTTTTTCT | 0.984
131 | ATAAAAGGGA | 0.965
132 | ATAAAAGTGC | 1.12
133 | ATAAAATTAA | 0.977
134 | ATAAACCTAG | 1.06
135 | ATAAAGACTA | 1.02
136 | ATAAAGGAGC | 0.945
137 | ATAAATCCGG | 1.03
138 | ATAAATGAGA | 1.03
139 | ATAACGATTT | 1
140 | ATAACGGTTC | 1.01
141 | ATAACGTATA | 1.15
142 | ATAACGTGCT | 0.997
143 | ATAACGTTTG | 0.983
144 | ATAACTAATT | 1.05
145 | ATAACTAGCG | 1.03
146 | ATAACTTACG | 1.25
147 | ATAAGAGTA | 0.979
148 | ATAAGATAGT | 0.988
149 | ATAAGCCGAC | 1.11
150 | ATAAGTAGAC | 1

Row | Sequence | switch fluorescence ratio
151 | ATAAGTATGC | 1.13
152 | ATAAGTCGGC | 0.958
153 | ATAAGTTTG | 0.962
154 | ATAATACCTA | 1
155 | ATAATACGTA | 1.04
156 | ATAATACGTC | 1.03
157 | ATAATCGACG | 0.987
158 | ATAATGATGA | 1.02
159 | ATAATTAGCT | 1.03
160 | ATAATTAGG | 0.973
161 | ATACAAATGT | 1
162 | ATACAATCTC | 1.14
163 | ATACAATGAG | 1.01
164 | ATACAATGGT | 0.97
165 | ATACAATGTG | 1.04
166 | ATACAATTCG | 0.972
167 | ATACACAGGC | 1.02
168 | ATACAGACAC | 1.21
169 | ATACAGATCG | 1.03
170 | ATACAGGTGG | 1.02
171 | ATACATATCG | 1.13
172 | ATACATGCGT | 1
173 | ATACCAACGT | 1.37
174 | ATACCCAACA | 1.1
175 | ATACCTAAGG | 1.03

Row | Sequence | switch fluorescence ratio
176 | ATACCTCTGG | 0.974
177 | ATACCTGAAG | 1.07
178 | ATACGAGAGG | 1.05
179 | ATACGAGTAT | 1.04
180 | ATACGATGG | 0.916
181 | ATACGATTCA | 1.01
182 | ATACGCAGTC | 1.77
183 | ATACGCTCCA | 1.03
184 | ATACGGCCGT | 1.02
185 | ATACGGGACG | 1.05
186 | ATACGGTTCT | 1.06
187 | ATACGTTTCT | 1.03
188 | ATACTAAAAG | 1.03
189 | ATACTAAGAG | 1.01
190 | ATACTAGCGC | 0.993
191 | ATACTAGTTC | 0.972
192 | ATACTTCCTG | 1.19
193 | ATACTTGACG | 1.08
194 | ATACTTGCAC | 1.25
195 | ATAGAAAGAT | 1
196 | ATAGAACAG | 1.4
197 | ATAGAGGTA | 1
198 | ATAGAGGTCT | 1.01
199 | ATAGAGGTTG | 1
200 | ATAGATCAAG | 1.02
